# Laboratory results reported in the supplement of paper PMC12632987.
# In all, about 4,500 sequences were measured (“median log2 fold change of GCK-ALFA target abundance (FLAG IP / Myc IP barcode read proportion)”: median about 0.078, lowest 2% from about -0.6 on). Some of the results follow.
# B1: GBRAP_128_3276 (protein)
# chain: MNEEVVEKALEFVERLKEADEEEAREIAEEFAEWLGSISTEEAEQAVDVIIERLGELSAEQLEILADVLREHRGKFDPEKANLVADLQVEALNEAVEKEE
# B2: GBRAP_52_6355 (protein)
# chain: MRERMRKIVEEMVKLKKEGKEEELKELAKEVVKTLSPEELRLLFDELARLALESDKETAEALFEVAEVLEDEMLEAGRDEFEASALLSRVGKAVYENLQK
# B3: GBRAP_35_5518 (protein)
# chain: STSETETEMLVATIEDLVLAVADMPVEQAAAIANKLIDDALKLAKENKDDLEALKKIKKALEKLLAAIKKNYPDSPLAKETAEKIEKAIKEIEKLIKEAK
# B4: GBRAP_166_4909 (protein)
# chain: SNEEKIKKLKEEAEKLIKELKEANEEEALELIIEFGEVLEELKKLGASEEEILELVRKLLEAVKEKGFSVKVAAGIIANVADFDEEEIEKLDKIAEEVEK
# B5: GBRAP_160_3969 (protein)
# chain: SEEVEKLLKEIDEIFEEAKEMIVGESFENRLTIVRVAVGEVLLLLSENPLVSDEAEDKVDEIGDELIATIEANPDLTEEEIKELIDKAEEEIKKIIKEDA
# B6: GBRAP_39_5709 (protein)
# chain: DEEEELELLAEYYAADAAKAQVESGVSLEDFLAAQRKEIEEEAKTNPESKEVYERLLELMDEGDEVDALIAAGIAAALKAGMPVEEAQAILDEVERERKE
# B7: GBRAP_35_5550 (protein)
# chain: SDEETIVEMLRNTAEDLLLAVDTMPIDTLFTVTTQIAELVLEALREERSNKEGMRELGRAMIAALDAAIARAKAEGAPQEKIDELERLRKEVEEALKELE
# B8: GBRAP_117_2602 (protein)
# chain: MSKLEKAKELAKKLVELIRKSLEESKKLTPEERKELEKKTLEEVTKLVKEMLKLVDVDTLEELFAEATEDLTPEERVKAYILYEEALAEALDERKKEEEE
# B9: GBRAP_160_4784 (protein)
# chain: MERVEKVAKRFREAAKRALELSKGETAENRANIVDVELGSAILELEEEGLLNDEEEEVAAEVRDELVAEILANPNLTDEELKALLEKAVEELRKRLEELE
# B10: GBRAP_48_5834 (protein)
# chain: MPFDEEKLEKLVKETVEEMKEVYEEAKAEGLSREEILKMVRALLGDLALELEEAGYTKAADYLLDPENREKVATTLVELFDEGKYEEAKKYLLDTLKKVE
# B11: GBRAP_184_5245 (protein)
# chain: MVIDVEVTVSTKEEAIEKLKEVEEEAKKKGAKVDLIVTLTNATKELVETTMKLIKELKEKGLLNSVEVVIDNYEDEETLELAFDLAHEVGVDALAYDEKE
# B12: GBRAP_184_5253 (protein)
# chain: AVLERTIEAENVEELKAQMAKIGAEALATGADLIITLKAKEVTKEMIKALFDAIAALKAAGYTGRVTVGIDADLSEEMIDFAIEQADKAGVNLVLALPEE
# B13: GBRAP_184_5076 (protein)
# chain: AVLEETLRVEDLEEARARLAALRERVADFRGTLVVLVEMPEFERETARAVLEGLAAMKAAGYVTDVTVGFDAPLTEEQVDFVVDTADALGVKVTLALPEE
# B14: GBRAP_83_6984 (protein)
# chain: AEEIVVAAPADRAAEAVEIAEDLSKEEGYDVTLEILVRADQLDKALAAVEEAIAKLDGIEIVLALEGATPEQAAALQARANAAAAAAGSNSTITVVLEEP
# B15: GBRAP_74_6546 (protein)
# chain: SEELIKKAKEAKEKKDIEELIKLTREALEKGDKKAAIETLRLLAEAVVENKDEVTYEELEAAAEVIAEALEKIDDLEFSDELFKLIAEVLKLAVEAEKAK
# B16: GBRAP_160_4620 (protein)
# chain: SEELEEIIELVEEEREFVLEIIDEEDIETARLAFEIESGSIILEAEESEYISDEAVEKIDEIRDKAVETLKANPDASKEEVKKVVTEAFDEIKEIIKEEE
# B17: GBRAP_78_6642 (protein)
# chain: KVEELIDEAIEKLDEAHRLAQKLPEELRNELLAEIVEAESYLLLAEENGYDLKELKEALKELEEALKLVKKSDHPEAPEIAKELEEAIKLVKEAIKLVEK
# B18: GBRAP_160_4748 (protein)
# chain: KEELEKLKKEVEEIFEEGIELLRESPASEAPTIVRGTMGEVIMLVMSSEAASDELEEKVAEIADRAEAEAAANADAPVEVHVAILERAREEVLKIIEEAI
# B19: GBRAP_160_4813 (protein)
# chain: MEEVEKELEEAREDLLETAEASKDLPVADRAKLLEAEGYTEILELEEELNLSDETVDELVKIVDDLVATLLANPDLSDEEVLALVEEAAEKIEEVVLKEA
# Biological target: GABARAP, O95166
# Sequence (O95166 whole entry, the tested form may be a part): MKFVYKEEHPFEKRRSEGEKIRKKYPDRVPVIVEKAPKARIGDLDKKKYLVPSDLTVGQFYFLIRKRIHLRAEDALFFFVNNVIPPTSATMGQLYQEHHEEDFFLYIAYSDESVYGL
# Assay: median log2 fold change of GCK-ALFA target abundance (FLAG IP / Myc IP barcode read proportion) (log2 ratio); each designed protein is fused to an ALFA-tag nanobody in HEK293 cells to bring the named protein to FLAG-tagged glucokinase (GCK); Myc marks an untargeted standard; higher = target protein stabilised (more abundant)
# Conditions: target protein: 3xFLAG-MCP-GCK-ALFA reporter; HEK293 landing pad (RPLP)
# In short: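 An ALFA-nanobody-fused binder library was recombined into HEK293 landing-pad cells and induced with 2 μg mL^−1 doxycycline. Cells were transfected with a plasmid expressing a FLAG-tagged target and a Myc-tagged standard. After 48 h, lysates underwent anti-FLAG and anti-Myc immunoprecipitation, and circular RNA barcodes were reverse transcribed, amplified and sequenced. Target abundance is the per-binder median log2 ratio of FLAG to Myc barcode read proportions. Barcodes needed ≥10^−7 proportion in both replicates, binders ≥3 barcodes per replicate, and a 10^−6 pseudocount was added; the two replicates were pooled.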
row,Binder,median log2 fold change
1,B1,-0.0114
2,B2,0.039
3,B3,0.195
4,B4,-0.0535
5,B5,-0.61
6,B6,0.0701
7,B7,-0.103
8,B8,0.278
9,B9,0.242
10,B10,0.225
11,B11,0.088
12,B12,0.0779
13,B13,0.0481
14,B14,0.108
15,B15,-0.147
16,B16,-0.209
17,B17,0.246
18,B18,0.148
19,B19,-0.183
